Results as given in US20250179205A1.
Numbering of substitutions follows the chain as printed.

B1: P1AE0637 CD40 × FAP (28H1) (4 + 1) C-terminal crossFab fusion (bispecific antibody, human IgG1, kappa)
heavy 1: EVQLVESGGGLVQPGGSLRLSCAASGYSFTGYYIHWVRQAPGKGLEWVARVIPNAGGTSYNQKFKGRFTLSVDNSKNTAYLQMNSLRAEDTAVYYCAREGIYWWGQGTLVTVSSASTKGPSVFPLAPSSKSTSGGTAALGCLVEDYFPEPVTVSWNSGALTSGVHTFPAVLQSSGLYSLSSVVTVPSSSLGTQTYICNVNHKPSNTKVDEKVEPKSCDGGGGSGGGGSEVQLVESGGGLVQPGGSLRLSCAASGYSFTGYYIHWVRQAPGKGLEWVARVIPNAGGTSYNQKFKGRFTLSVDNSKNTAYLQMNSLRAEDTAVYYCAREGIYWWGQGTLVTVSSASTKGPSVFPLAPSSKSTSGGTAALGCLVEDYFPEPVTVSWNSGALTSGVHTFPAVLQSSGLYSLSSVVTVPSSSLGTQTYICNVNHKPSNTKVDEKV[no letters for human IgG1 Fc with changes]GGGGSGGGGSGGGGSGGGGSEIVLTQSPGTLSLSPGERATLSCRASQSVSRSYLAWYQQKPGQAPRLLIIGASTRATGIPDRFSGSGSGTDFTLTISRLEPEDFAVYYCQQGQVIPPTFGQGTKVEIKSSASTKGPSVFPLAPSSKSTSGGTAALGCLVKDYFPEPVTVSWNSGALTSGVHTFPAVLQSSGLYSLSSVVTVPSSSLGTQTYICNVNHKPSNTKVDKKVEPKSC
heavy 2: EVQLVESGGGLVQPGGSLRLSCAASGYSFTGYYIHWVRQAPGKGLEWVARVIPNAGGTSYNQKFKGRFTLSVDNSKNTAYLQMNSLRAEDTAVYYCAREGIYWWGQGTLVTVSSASTKGPSVFPLAPSSKSTSGGTAALGCLVEDYFPEPVTVSWNSGALTSGVHTFPAVLQSSGLYSLSSVVTVPSSSLGTQTYICNVNHKPSNTKVDEKVEPKSCDGGGGSGGGGSEVQLVESGGGLVQPGGSLRLSCAASGYSFTGYYIHWVRQAPGKGLEWVARVIPNAGGTSYNQKFKGRFTLSVDNSKNTAYLQMNSLRAEDTAVYYCAREGIYWWGQGTLVTVSSASTKGPSVFPLAPSSKSTSGGTAALGCLVEDYFPEPVTVSWNSGALTSGVHTFPAVLQSSGLYSLSSVVTVPSSSLGTQTYICNVNHKPSNTKVDEKVEPKSCDKTHTCPPCPAPEAAGGPSVFLFPPKPKDTLMISRTPEVTCVVVDVSHEDPEVKFNWYVDGVEVHNAKTKPREEQYNSTYRVVSVLTVLHQDWLNGKEYKCKVSNKALGAPIEKTISKAKGQPREPQVCTLPPSRDELTKNQVSLSCAVKGFYPSDIAVEWESNGQPENNYKTTPPVLDSDGSFFLVSKLTVDKSRWQQGNVFSCSVMHEALHNHYTQKSLSLSPG
light 1: DIQMTQSPSSLSASVGDRVTITCRSSQSLVHSNGNTFLHWYQQKPGKAPKLLIYTVSNRFSGVPSRFSGSGSGTDFTLTISSLQPEDFATYFCSQTTHVPWTFGQGTKVEIKRTVAAPSVFIFPPSDRKLKSGTASVVCLLNNFYPREAKVQWKVDNALQSGNSQESVTEQDSKDSTYSLSSTLTLSKADYEKHKVYACEVTHQGLSSPVTKSFNRGEC
light 2: EVQLLESGGGLVQPGGSLRLSCAASGFTFSSHAMSWVRQAPGKGLEWVSAIWASGEQYYADSVKGRFTISRDNSKNTLYLQMNSLRAEDTAVYYCAKGWLGNFDYWGQGTLVTVSSASVAAPSVFIFPPSDEQLKSGTASVVCLLNNFYPREAKVQWKVDNALQSGNSQESVTEQDSKDSTYSLSSTLTLSKADYEKHKVYACEVTHQGLSSPVTKSFNRGEC
B2: P1AE0889 CD40 (VH2a/VL2a) × FAP (28H1) (4 + 1) C-terminal crossFab fusion (bispecific antibody, human IgG1, kappa)
heavy 1: EVQLLESGGGLVQPGGSLRLSCAASGYSFTGYYIHWVRQAPGKGLEWVGRVIPNAGGTSYNQKFKGRFTISVDNSKNTAYLQMNSLRAEDTAVYYCAREGIYWWGQGTTVTVSSASTKGPSVFPLAPSSKSTSGGTAALGCLVEDYFPEPVTVSWNSGALTSGVHTFPAVLQSSGLYSLSSVVTVPSSSLGTQTYICNVNHKPSNTKVDEKVEPKSCDGGGGSGGGGSEVQLLESGGGLVQPGGSLRLSCAASGYSFTGYYIHWVRQAPGKGLEWVGRVIPNAGGTSYNQKFKGRFTISVDNSKNTAYLQMNSLRAEDTAVYYCAREGIYWWGQGTTVTVSSASTKGPSVFPLAPSSKSTSGGTAALGCLVEDYFPEPVTVSWNSGALTSGVHTFPAVLQSSGLYSLSSVVTVPSSSLGTQTYICNVNHKPSNTKVDEKV[no letters for human IgG1 Fc with changes]GGGGSGGGGSGGGGSGGGGSEIVLTQSPGTLSLSPGERATLSCRASQSVSRSYLAWYQQKPGQAPRLLIIGASTRATGIPDRFSGSGSGTDFTLTISRLEPEDFAVYYCQQGQVIPPTFGQGTKVEIKSSASTKGPSVFPLAPSSKSTSGGTAALGCLVKDYFPEPVTVSWNSGALTSGVHTFPAVLQSSGLYSLSSVVTVPSSSLGTQTYICNVNHKPSNTKVDKKVEPKSC
heavy 2: B1 heavy 2 with V5L, A49G, L70I, L109T, V233L, A277G, L298I, L337T
light 1: B1 light 1 with Q105G
light 2: B1 light 2
B3: P1AE0890 CD40 (VH2d/VL2a) × FAP (28H1) (4 + 1) C-terminal crossFab fusion (bispecific antibody, human IgG1, kappa)
heavy 1: EVQLLESGGGLVQPGGSLRLSCAASGYSFTGYYIHWVRQAPGKGLEWVGRVIPNAGGTSYGDSVKGRFTISVDNSKNTAYLQMNSLRAEDTAVYYCAREGIYWWGQGTTVTVSSASTKGPSVFPLAPSSKSTSGGTAALGCLVEDYFPEPVTVSWNSGALTSGVHTFPAVLQSSGLYSLSSVVTVPSSSLGTQTYICNVNHKPSNTKVDEKVEPKSCDGGGGSGGGGSEVQLLESGGGLVQPGGSLRLSCAASGYSFTGYYIHWVRQAPGKGLEWVGRVIPNAGGTSYGDSVKGRFTISVDNSKNTAYLQMNSLRAEDTAVYYCAREGIYWWGQGTTVTVSSASTKGPSVFPLAPSSKSTSGGTAALGCLVEDYFPEPVTVSWNSGALTSGVHTFPAVLQSSGLYSLSSVVTVPSSSLGTQTYICNVNHKPSNTKVDEKV[no letters for human IgG1 Fc with changes]GGGGSGGGGSGGGGSGGGGSEIVLTQSPGTLSLSPGERATLSCRASQSVSRSYLAWYQQKPGQAPRLLIIGASTRATGIPDRFSGSGSGTDFTLTISRLEPEDFAVYYCQQGQVIPPTFGQGTKVEIKSSASTKGPSVFPLAPSSKSTSGGTAALGCLVKDYFPEPVTVSWNSGALTSGVHTFPAVLQSSGLYSLSSVVTVPSSSLGTQTYICNVNHKPSNTKVDKKVEPKSC
heavy 2: EVQLLESGGGLVQPGGSLRLSCAASGYSFTGYYIHWVRQAPGKGLEWVGRVIPNAGGTSYGDSVKGRFTISVDNSKNTAYLQMNSLRAEDTAVYYCAREGIYWWGQGTTVTVSSASTKGPSVFPLAPSSKSTSGGTAALGCLVEDYFPEPVTVSWNSGALTSGVHTFPAVLQSSGLYSLSSVVTVPSSSLGTQTYICNVNHKPSNTKVDEKVEPKSCDGGGGSGGGGSEVQLLESGGGLVQPGGSLRLSCAASGYSFTGYYIHWVRQAPGKGLEWVGRVIPNAGGTSYGDSVKGRFTISVDNSKNTAYLQMNSLRAEDTAVYYCAREGIYWWGQGTTVTVSSASTKGPSVFPLAPSSKSTSGGTAALGCLVEDYFPEPVTVSWNSGALTSGVHTFPAVLQSSGLYSLSSVVTVPSSSLGTQTYICNVNHKPSNTKVDEKVEPKSCDKTHTCPPCPAPEAAGGPSVFLFPPKPKDTLMISRTPEVTCVVVDVSHEDPEVKFNWYVDGVEVHNAKTKPREEQYNSTYRVVSVLTVLHQDWLNGKEYKCKVSNKALGAPIEKTISKAKGQPREPQVCTLPPSRDELTKNQVSLSCAVKGFYPSDIAVEWESNGQPENNYKTTPPVLDSDGSFFLVSKLTVDKSRWQQGNVFSCSVMHEALHNHYTQKSLSLSPG
light 1: B1 light 1 with Q105G
light 2: B1 light 2

Key:
[1] = molecular target: T1, His-tagged human dimeric FAP (recombinant FAP_ECD) (human), Q12884; experiment: method not stated; SPR as in Example 5.3.2 presumed
[2] = molecular target: human fibroblast activation protein (huFAP) (human), Q12884; experiment: flow cytometry, NIH/3T3-huFAP clone 19 cells, PE anti-human Fc F(ab')2
[3] = molecular target: T1, His-tagged human dimeric FAP …; experiment: SPR (Biacore T200), His-tagged dimeric huFAP ECD captured by anti-His, antibody as analyte, 1:1 fit (avidity)

Row | Binder | Kd [1] | EC50 [2] | Kd [3] | koff [3] | kon [3]
1 | B1 | 0.1 nM | 10.5 nM | 7.3 nM | 0.00205 s⁻¹ | 282000 M⁻¹ s⁻¹
2 | B2 | – | 24.3 nM | – | – | –
3 | B3 | – | 30.4 nM | – | – | –
